In PubChem BioAssay AID1030 (National Center for Advancing Translational Sciences (NCATS), 2008):
Hit rate of the full screen: of about 220,000 compounds, about 16,000 (7.3%) were called active. The inconclusive results got no clear call from the source; some entries with a clear call stand among them for comparison. Calls follow the shape of the dose curve; as a rule, active = well fitted inhibition curve with a large enough effect (not every such curve was filed as active); inconclusive = small, poorly fitted or top-dose-only effect, or another doubt; inactive = no such curve, though single readings can be large or run the other way. Potencies of inconclusive entries are left out as doubtful fits.

molecular target: Aldehyde dehydrogenase 1A1 (Homo sapiens) (UniProt P00352); test: qHTS Assay for Inhibitors of Aldehyde Dehydrogenase 1 (ALDH1A1); settings: Purified ALDH1A1, NADH fluorescence, propionaldehyde substrate; series mostly up to 75.3 µM
UniProt P00352, sequence (P00352 whole entry, looked up): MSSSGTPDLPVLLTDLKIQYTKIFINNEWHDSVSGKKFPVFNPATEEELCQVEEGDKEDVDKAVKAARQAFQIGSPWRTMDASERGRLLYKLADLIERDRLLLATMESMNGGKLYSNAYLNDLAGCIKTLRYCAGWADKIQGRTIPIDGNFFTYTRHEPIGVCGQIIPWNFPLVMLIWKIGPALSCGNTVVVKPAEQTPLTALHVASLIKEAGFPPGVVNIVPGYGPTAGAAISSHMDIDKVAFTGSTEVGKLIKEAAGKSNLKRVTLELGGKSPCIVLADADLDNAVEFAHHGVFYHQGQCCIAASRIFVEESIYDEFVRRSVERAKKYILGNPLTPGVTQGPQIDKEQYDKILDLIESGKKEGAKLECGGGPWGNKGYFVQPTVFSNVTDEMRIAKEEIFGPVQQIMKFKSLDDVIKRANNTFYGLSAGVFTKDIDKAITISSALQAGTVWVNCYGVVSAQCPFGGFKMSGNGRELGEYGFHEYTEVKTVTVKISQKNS
Potency is read from the fitted curve at half-maximal effect; tags tell the direction and shape of the fitted curve.

| Compound | Potency |
| --- | --- |
| COc1ccc(S(=O)NC2CCCCC2)c(OC)c1C (stereo not given) | inactive |
| COc1ccccc1C(=O)COC(=O)c1ccc(N(C)C)cc1 | inconclusive [inhibitor, single point] |
| CC1CCCCN1c1nc(-c2ccncc2)nc2ccccc12 (stereo not given) | inconclusive [inhibitor, single point] |
| Cc1ccc2[nH]c3c(=O)n(CCN4CCNCC4)cnc3c2c1 | inconclusive [inhibitor, partial curve] |
| CC(C)(C)Cc1cc(N)on1 | inactive |
| O=C(CN1CCN(CCO)CC1)Nc1ccccc1 | inconclusive [inhibitor, single point] |
| CCOc1ccccc1NC(=O)COc1cccc(-n2cnnn2)c1 | inconclusive [inhibitor, partial curve] |
| COc1ccc(NC(=O)C2CCCCN2N)cc1OC (stereo not given) | inconclusive [inhibitor, single point] |
| Cc1cc(/C=C2\Sc3ccccc3N2C)cc(C)[n+]1CC1CCCO1 (stereo not given) | inconclusive [inhibitor, single point] |
| O=C(NC1CCCCC1)c1ccc(CNc2ccccc2)o1 | inconclusive [inhibitor, single point] |
| CCCCN1C(=O)C(O)(CC(=O)c2c(C)coc2C)c2ccccc21 (stereo not given) | active: 10 µM |
| Cn1c(=O)c(-[n+]2ccccc2)c([O-])c2ccccc21 | inconclusive [inhibitor, single point] |
| CCCC(=NCCc1c(C)[nH]c2ccccc12)C1=C(O)CC(c2ccccc2)CC1=O (stereo not given) | inactive |
| O=C(C1CCN(C2CCN(Cc3ccc4cc(F)ccc4n3)CC2)CC1)N1CCCC1 | inactive |
| O=c1cc(-c2ccc(O)c(O)c2)oc2cc(O)c(C3OC(CO)C(O)C(O)C3O)c(O)c12 (stereo not given) | inactive |
| CN(C)c1ncc2nc(-c3ccccc3)c(=O)n(Cc3cccs3)c2n1 | inconclusive [inhibitor, partial curve] |
| Cc1ccc(-c2cc(C(=O)Nc3cnn(C(C)C)c3)no2)cc1 | inconclusive [inhibitor, partial curve] |
| CN(C)CCNc1nc2c(c(=O)[nH]c(=O)n2C)n1CC(O)COc1ccc(Cl)cc1 (stereo not given) | inactive |
| O=C(NCc1ccccc1Cl)c1ccc2c(c1)SC1=NS(=O)(=O)CCN12 | active: 4.47 µM |
| O=C(/C=C/c1ccc([N+](=O)[O-])cc1)N1CCN(c2ccccc2F)CC1 | inactive |
| O=C1C2C3C=CC(C4CC34)C2C(=O)N1c1ccc2c(c1)OCO2 (stereo not given) | inconclusive [inhibitor, single point] |
| C=C1C(=O)O[C@@H]2[C@H]3O[C@]3(C)CC/C=C(\C)CC[C@@H]12 | active: 12.6 µM |
| COc1ccc(-n2c(=O)c(-c3ccc(F)cc3)nc3cnc(N4CCNCC4)nc32)cc1 | inconclusive [inhibitor, single point] |
| COc1ccc(Cl)cc1NC(=O)CCn1cnc2ccccc2c1=O | inconclusive [inhibitor, single point] |
| CN(C)S(=O)(=O)c1cccc(NC(=S)N2CCc3ccccc32)c1 | active: 17.8 µM |

| Compound | Potency |
| --- | --- |
| Cc1ccc(C(C(=O)NC2CCCC2)N(Cc2cccs2)C(=O)CNC(=O)c2cccs2)o1 (stereo not given) | inconclusive [inhibitor, partial curve] |
| CCOc1ccc(/C=C/C(=O)c2ccccc2)cc1 | inactive |
| CCOC(=O)c1ccc2c(c1)C(=O)N(C1CCCCC1)C2=O | active: 22.4 µM |
| CCOC(=O)CCCNC(=O)CSc1nc2ccc(OCC)cc2[nH]1 | inactive |
| CC(=O)c1c(C)[nH]c(C(=O)OCC(=O)N(C)C)c1C | inconclusive [inhibitor, single point] |
| N#CCCN(Cc1ccccc1)C(=O)Nc1ccc(F)cc1 | inactive |
| CC1CCCCC12NC(=O)N(CC(=O)Nc1sc3c(c1C(N)=O)CCC3)C2=O (stereo not given) | inconclusive [inhibitor, single point] |
| Cc1ccc(Cl)cc1N(Cc1ccc(C(=O)NCc2cccnc2)cc1)S(=O)(=O)c1ccccc1 | inactive |
| CN(C)S(=O)(=O)c1cccc(CSc2cccc[n+]2[O-])c1 | inactive |
| CC1(C(=O)NC2CCCC2)CCC(=O)N1Cc1cccs1 (stereo not given) | inactive |
| NC1=NC(=O)C2(COC(c3cccnc3)OC2)S1 (stereo not given) | inactive |
| C[C@H](NC(=O)c1ccco1)C(=O)Nc1cccc([N+](=O)[O-])c1 | inactive |
| COc1ccc(NC(=O)CSc2c3c(nc4ccccc24)CCC3)c(OC)c1 | inactive |
| CCOCCCNC(=O)CN1C(=O)/C(=C/c2ccccc2)Sc2ccccc21 | inconclusive [inhibitor, partial curve] |
| C1CCC(n2nnnc2CN2CCCC2)CC1 | inconclusive [inhibitor, single point] |
| COc1ccc2c(c1OC)C(=O)N1c3ccccc3N=C(c3ccc([N+](=O)[O-])cc3)CC21 (stereo not given) | active: 10 µM |
| CCOC(=O)c1c(-c2ccc(C)o2)csc1NC(=O)COC(=O)c1ccc(NC(N)=O)cc1 | inconclusive [inhibitor, partial curve] |
| COc1ccc(C(=O)OCC[N+]2(C)CCCCC2)cc1 | inactive |
| COc1cccc(NC(=O)CN(C)C(=O)/C=C/c2cc(OC)ccc2OC)c1 | inconclusive [inhibitor, partial curve] |
| Cc1c(C(=O)N2CCCCCC2)nnn1-c1nonc1N | active: 11.2 µM |
| CCOC(=O)CSc1nc2c(c(=O)[nH]c(=O)n2C)n1CCCc1ccccc1 | inactive |
| C=CCSc1nnc(-c2sc(-c3ccccc3)nc2C)n1C | inconclusive [inhibitor, partial curve] |
| CCOc1ccc2cc(C#N)c(SCC(=O)NC(C)CC)nc2c1 (stereo not given) | inactive |
| CC1C(C#N)=C(SCC(N)=O)NC2=C1C(=O)CC(C)(C)C2 (stereo not given) | inconclusive [inhibitor, partial curve] |
| CCC(C)n1[nH]c(=O)c2c(C)cc(C)nc21 (stereo not given) | inconclusive [inhibitor, single point] |
